Laboratory results taken from the supplement of paper PMC4604168 (melanoma cell lines).
The list shows a part of the results. Many values rest on one well or one pass, so single values are uncertain.

Legend:
Assay in all cases: cell count relative to DMSO control; melanoma cells; higher = more viable cells
Conditions in all cases: library dose: low library concentration; 72 h
MZ2-MEL = system: MZ2-MEL
MeWo = system: MeWo
RPMI7951 = system: RPMI7951
RVH-421 = system: RVH-421
SkMel28 = system: SkMel28
SkMel2 = system: SkMel2
SkMel30 = system: SkMel30
SkMel5 = system: SkMel5
UACC257 = system: UACC257
UACC62 = system: UACC62
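Also: cell number obtained by counting DAPI-stained nuclei in high-throughput microscope images with image analysis software, screen run in 1,536-well plates.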

| SMILES | cell count (MZ2-MEL) [%] | cell count (MeWo) [%] | cell count (RPMI7951) [%] | cell count (RVH-421) [%] | cell count (SkMel28) [%] | cell count (SkMel2) [%] | cell count (SkMel30) [%] | cell count (SkMel5) [%] | cell count (UACC257) [%] | cell count (UACC62) [%] |
| --- | --- | --- | --- | --- | --- | --- | --- | --- | --- | --- |
| O=C(O)c1ccc2c(c1)nc(Nc1cccc(Cl)c1)c1ccncc12 + Cc1ccc(NC(=O)c2cccc(N(C)C)c2)cc1NC(=O)c1ccc(O)cc1 [ZM336372] (first compound 0.4 µM, partner dose 2 µM) | 74.3 | 88.9 | 67.9 | 83.9 | 106 | 98.6 | 76 | 111 | 98.5 | 90.6 |
| O=C(Nc1cc(C(F)(F)F)cc(C(F)(F)F)c1)c1cc(Cl)ccc1O + CS(=O)(=O)c1ccc(C(=O)Nc2ccc(Cl)c(-c3ccccn3)c2)c(Cl)c1 [vismodegib] (first compound 0.016 µM, partner dose 1 µM) | 106 | 98.7 | 115 | 90.2 | 132 | 104 | 81.7 |  |  | 100 |
| O=C(O)[C@@H]1[O][Sb](=[O])([O][Sb]2(=[O])[O][C@H]([C@H](O)CO)[C@H](O)[C@H](C(=O)O)[O]2)[O][C@H]([C@H](O)CO)[C@@H]1O (stereo not given in full) [stibogluconate] + O=C(O)C(=O)Nc1sc2c(c1C(=O)O)CCNC2 [TCS401] (first compound 2 µM, partner dose 1.66667 µM) | 98.7 | 96.8 | 106 | 116 | 90.5 | 89.6 | 91.6 | 76.1 | 104 | 94.9 |
| O=C(O)[C@@H]1[O][Sb](=[O])([O][Sb]2(=[O])[O][C@H]([C@H](O)CO)[C@H](O)[C@H](C(=O)O)[O]2)[O][C@H]([C@H](O)CO)[C@@H]1O (stereo not given in full) [stibogluconate] + Cn1cc(/C=C2\C(=O)Nc3cccnc32)c2ccccc21 [GW441756] (first compound 2 µM, partner dose 0.4 µM) | 95.4 | 100 | 92.4 | 98.8 | 107 | 111 | 92.1 | 90 | 84.3 | 94.8 |
| O=C(O)[C@@H]1[O][Sb](=[O])([O][Sb]2(=[O])[O][C@H]([C@H](O)CO)[C@H](O)[C@H](C(=O)O)[O]2)[O][C@H]([C@H](O)CO)[C@@H]1O (stereo not given in full) [stibogluconate] + Cc1nc(Nc2ncc(C(=O)Nc3c(C)cccc3Cl)s2)cc(N2CCN(CCO)CC2)n1 [dasatanib] (first compound 2 µM, partner dose 0.004 µM) | 69.6 | 91.7 | 66.2 | 77.5 | 67.3 | 93.9 | 86.6 |  |  | 81.7 |
| O=C(O)c1ccc2c(c1)nc(Nc1cccc(Cl)c1)c1ccncc12 + CC(C)CCN1c2nc(Nc3cc(F)c(O)c(F)c3)ncc2N(C)C(=O)C1C [BID1870] (first compound 0.4 µM, partner dose 0.2 µM) | 87.5 | 68.4 | 94.8 | 110 | 89 | 81.8 | 77.2 | 81.4 | 71.3 | 92.3 |
| O=C(O)c1ccc2c(c1)nc(Nc1cccc(Cl)c1)c1ccncc12 + O=C(O)C(=O)Nc1sc2c(c1C(=O)O)CCNC2 [TCS401] (first compound 0.4 µM, partner dose 1.66667 µM) | 86.3 | 101 | 102 | 108 | 89.3 | 101 | 91 | 104 | 70.9 | 96.2 |
| O=C(O)[C@@H]1[O][Sb](=[O])([O][Sb]2(=[O])[O][C@H]([C@H](O)CO)[C@H](O)[C@H](C(=O)O)[O]2)[O][C@H]([C@H](O)CO)[C@@H]1O (stereo not given in full) [stibogluconate] + COC(=O)c1sccc1S(=O)(=O)Nc1ccc(Nc2ccccc2)cc1OC [GSK0660] (first compound 2 µM, partner dose 1 µM) | 93.4 | 97.4 | 108 | 109 | 93.7 | 92.7 | 98.6 | 110 | 99.8 | 90.7 |
| O=C(Nc1cc(C(F)(F)F)cc(C(F)(F)F)c1)c1cc(Cl)ccc1O + CO[C@@H]1[C@H](N(C)C(=O)c2ccccc2)C[C@H]2O[C@]1(C)n1c3ccccc3c3c4c(c5c6ccccc6n2c5c31)C(=O)NC4 [Midostaurin] (first compound 0.016 µM, partner dose 0.08 µM) | 92.4 | 85.7 | 85.9 | 96.2 | 85.9 | 83.3 | 109 | 77.3 | 71.7 | 80.7 |
| O=C(O)c1ccc2c(c1)nc(Nc1cccc(Cl)c1)c1ccncc12 + COC(=O)c1sccc1S(=O)(=O)Nc1ccc(Nc2ccccc2)cc1OC [GSK0660] (first compound 0.4 µM, partner dose 1 µM) | 81.8 | 101 | 93.7 | 121 | 116 | 114 | 98.4 | 121 | 96.7 | 103 |
| O=C(Nc1cc(C(F)(F)F)cc(C(F)(F)F)c1)c1cc(Cl)ccc1O + Cn1cnc2c(F)c(Nc3ccc(Br)cc3Cl)c(C(=O)NOCCO)cc21 [selumetinib] (first compound 0.016 µM, partner dose 0.015 µM) | 111 | 84.5 | 98.7 | 86.5 | 105 | 88.7 | 82.9 |  |  | 82.9 |
| O=C(O)[C@@H]1[O][Sb](=[O])([O][Sb]2(=[O])[O][C@H]([C@H](O)CO)[C@H](O)[C@H](C(=O)O)[O]2)[O][C@H]([C@H](O)CO)[C@@H]1O (stereo not given in full) [stibogluconate] + CC(=O)c1c(C)c2cnc(Nc3ccc(N4CCNCC4)cn3)nc2n(C2CCCC2)c1=O [palbociclib] (first compound 2 µM, partner dose 0.04 µM) | 83.7 | 89.2 | 68.5 | 86 | 94 | 87.1 | 54.3 |  |  | 74.8 |
| O=C(Nc1cc(C(F)(F)F)cc(C(F)(F)F)c1)c1cc(Cl)ccc1O + N#Cc1c(O)c2c(-c3ccc(-c4ccccc4O)cc3)csc2[nH]c1=O [A769662] (first compound 0.016 µM, partner dose 2 µM) | 94.7 | 86 | 111 | 110 | 96.2 | 115 | 94.6 | 91.5 | 80.7 | 92.3 |
| O=C(O)[C@@H]1[O][Sb](=[O])([O][Sb]2(=[O])[O][C@H]([C@H](O)CO)[C@H](O)[C@H](C(=O)O)[O]2)[O][C@H]([C@H](O)CO)[C@@H]1O (stereo not given in full) [stibogluconate] + CCc1ccc(CCOc2ccc(CC3SC(=O)NC3=O)cc2)nc1 [pioglitazone] (first compound 2 µM, partner dose 2 µM) | 99.4 | 106 | 105 | 102 | 96.7 | 105 | 129 | 114 | 121 | 112 |
| O=C(Nc1cc(C(F)(F)F)cc(C(F)(F)F)c1)c1cc(Cl)ccc1O + Cc1ccc(NC(=O)c2cccc(N(C)C)c2)cc1NC(=O)c1ccc(O)cc1 [ZM336372] (first compound 0.016 µM, partner dose 2 µM) | 66.7 | 91.5 | 90.8 | 99.2 | 94.7 | 102 | 97.4 | 101 | 84.9 | 91.2 |
| Cc1cc(N2CCOCC2)cc2[nH]c(-c3c(NC[C@@H](O)c4cccc(Cl)c4)cc[nH]c3=O)nc12 + CN(NC(=O)CC(=O)NN(C)C(=S)c1ccccc1)C(=S)c1ccccc1 [STA4783] (first compound 0.2 µM, partner dose 0.006 µM) | 115 | 99.5 | 114 | 105 | 116 | 76.5 | 65 | 98.6 | 97.7 | 92.9 |
| Cn1nnc2c(C(N)=O)ncn2c1=O [temozolomide] + Cc1cc(N2CCOCC2)cc2[nH]c(-c3c(NC[C@@H](O)c4cccc(Cl)c4)cc[nH]c3=O)nc12 [BMS536924] (first compound 2 µM, partner dose 0.2 µM) | 85.6 | 95.8 | 100 | 87.4 | 76.4 | 94 | 82.1 | 95.9 | 94.6 | 84.2 |
| O=C(O)[C@@H]1[O][Sb](=[O])([O][Sb]2(=[O])[O][C@H]([C@H](O)CO)[C@H](O)[C@H](C(=O)O)[O]2)[O][C@H]([C@H](O)CO)[C@@H]1O (stereo not given in full) [stibogluconate] + Nc1ccn([C@@H]2O[C@H](CO)[C@@H](O)C2(F)F)c(=O)n1 [gemcitabine] (first compound 2 µM, partner dose 0.0004 µM) | 101 | 95.3 | 93.6 | 90.8 | 90.2 | 89.1 | 84.2 |  |  | 85.9 |
| O=C(O)c1ccc2c(c1)nc(Nc1cccc(Cl)c1)c1ccncc12 + O=C(Nc1cccc(Cl)c1)Nc1ncc(CCNc2ncnc3ccsc23)s1 [SNS314] (first compound 0.4 µM, partner dose 0.0008 µM) | 104 | 85.3 | 125 | 88.4 | 105 | 105 | 105 | 117 | 90.5 | 94.6 |
| Cc1cc(N2CCOCC2)cc2[nH]c(-c3c(NC[C@@H](O)c4cccc(Cl)c4)cc[nH]c3=O)nc12 + OCCn1cc(-c2cnc3nnn(Cc4ccc5ncccc5c4)c3n2)cn1 [PF04217903] (first compound 0.2 µM, partner dose 1 µM) | 98.5 | 91 | 120 | 95.9 | 90.2 | 87.7 | 89.9 | 96.4 | 121 | 97.7 |
